The whole screen tested about 310,000 compounds, of which about 14,000 (4.5%) showed an effect of 50% or more. Effects have a minus sign here. The list shows a part of the results.
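Note: peak tail current of the secondary pulse compared with the same well before compound.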

human ether-à-go-go-related gene (hERG) potassium channel, sequence (Q12809 whole entry, looked up): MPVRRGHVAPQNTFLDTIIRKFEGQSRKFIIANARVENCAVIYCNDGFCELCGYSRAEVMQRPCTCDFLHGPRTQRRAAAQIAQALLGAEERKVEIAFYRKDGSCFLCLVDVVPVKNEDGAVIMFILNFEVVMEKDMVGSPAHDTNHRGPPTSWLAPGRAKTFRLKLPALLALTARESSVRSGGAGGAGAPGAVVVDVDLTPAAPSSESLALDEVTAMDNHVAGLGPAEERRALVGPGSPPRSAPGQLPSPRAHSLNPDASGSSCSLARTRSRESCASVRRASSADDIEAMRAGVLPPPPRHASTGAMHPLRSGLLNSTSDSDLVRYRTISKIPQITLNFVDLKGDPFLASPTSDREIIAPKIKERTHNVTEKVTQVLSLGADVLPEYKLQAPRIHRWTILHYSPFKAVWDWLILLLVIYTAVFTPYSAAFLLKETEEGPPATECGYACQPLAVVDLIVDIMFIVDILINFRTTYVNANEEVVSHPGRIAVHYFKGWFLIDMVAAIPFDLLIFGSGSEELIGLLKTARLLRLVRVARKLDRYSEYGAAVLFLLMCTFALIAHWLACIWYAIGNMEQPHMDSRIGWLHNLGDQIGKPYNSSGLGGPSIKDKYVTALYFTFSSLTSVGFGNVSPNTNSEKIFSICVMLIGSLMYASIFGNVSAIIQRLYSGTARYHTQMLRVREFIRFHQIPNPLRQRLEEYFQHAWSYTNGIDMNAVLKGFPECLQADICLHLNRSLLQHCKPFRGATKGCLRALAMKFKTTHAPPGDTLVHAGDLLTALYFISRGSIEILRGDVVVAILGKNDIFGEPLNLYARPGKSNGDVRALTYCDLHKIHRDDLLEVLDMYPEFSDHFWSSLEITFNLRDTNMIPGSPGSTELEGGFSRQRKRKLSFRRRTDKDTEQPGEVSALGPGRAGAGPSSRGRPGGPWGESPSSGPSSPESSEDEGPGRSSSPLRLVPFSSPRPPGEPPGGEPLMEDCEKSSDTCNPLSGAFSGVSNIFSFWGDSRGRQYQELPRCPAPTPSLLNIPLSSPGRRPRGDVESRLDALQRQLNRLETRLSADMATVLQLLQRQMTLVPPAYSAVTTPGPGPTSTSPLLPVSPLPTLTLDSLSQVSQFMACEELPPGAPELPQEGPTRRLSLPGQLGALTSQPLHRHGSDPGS

This experiment concerns the target human ether-à-go-go-related gene (hERG) potassium channel (human, UniProt Q12809). Nature of the experiment: primary screen, population patch clamp on CHO cells stably expressing hERG.
For `O=C(CNC(=O)c1ccccc1F)OCn1nnc2ccccc2c1=O`, the “hERG current change (%, negative = inhibition) at 10uM” value is on record as -7.4%. The result for `Cc1ccc(S(=O)(=O)NCC(=O)OCC(=O)N2N=C(c3ccc(Cl)cc3)CC2c2ccco2)cc1C` (centres unmarked) reads 4.41%. The result for `O=C(COC(=O)/C=C/c1cccc(C(F)(F)F)c1)NCc1ccc(F)cc1` reads 23.7%; that for `Cc1cccc(Nc2nnc(SCC(=O)c3ccc(Br)s3)s2)c1C`, 21.9%; that for `O=C(CCCCCn1nnc2ccccc2c1=O)N[C@H](C(=O)O)c1ccccc1`, 6.15%. With `CC(C)CN(CC(C)C)C(=O)c1cc2c(=O)n3ccccc3nc2s1`, the “hERG current change (%, negative = inhibition) at 10uM” value is on record as 7.12%. Regarding `COc1cccc(-n2c(CN3CCN(C)CC3)nc3ccc([N+](=O)[O-])cc3c2=O)c1`, the “hERG current change (%, negative = inhibition) at 10uM” value is -33.1%. For the compound `COc1ccc(-c2nnn(CC(=O)c3ccccc3)n2)cc1OC`, the “hERG current change (%, negative = inhibition) at 10uM” value is listed as -8.29%. Consider `CCOc1ccccc1-n1c(O)c(C=NCCCn2ccnc2)c(=O)[nH]c1=O`, for which the “hERG current change (%, negative = inhibition) at 10uM” value was found to be 13.2%. The same measure for `O=C(CSc1ccc2c(c1)OCCO2)N1CCN(c2ccccc2)CC1`: -12.1%; for `COc1ccc2[nH]c(=O)c(CN(Cc3cccs3)C(=S)Nc3ccccc3)cc2c1`: 16.7%; for `CCOC(=O)c1nn(-c2cccc(OC)c2)c(-c2ccccc2)c1C(=O)c1ccccc1`: -3.85%. `COCCn1c(SCC(=O)Nc2ccccc2C(F)(F)F)nc2ccccc2c1=O`: the “hERG current change (%, negative = inhibition) at 10uM” value came out at 5.67%. `O=C(O)C(Oc1ccc2c(c1)oc(=O)c1ccccc12)c1ccccc1` (centres unmarked): the “hERG current change (%, negative = inhibition) at 10uM” value is 20.9%. The result for `Cc1ccc(C(=O)Nc2ccc(C(=O)N/N=C/c3cccnc3)cc2)cc1` reads 34.6%; that for `O=c1nc2n(c3ncccc13)CCCCC2`, 12.6%. Consider `O=c1c2ccccc2nnn1COc1cccc2ccccc12`, for which the “hERG current change (%, negative = inhibition) at 10uM” value was 14.6%.

Regarding `Cc1[nH]c2ccccc2c1CCNC(=O)c1ccc2nccnc2c1`, the “hERG current change (%, negative = inhibition) at 10uM” value is reported as 13.2%. Take `Nc1ccc2nc(N3CCOCC3)sc2c1`: the “hERG current change (%, negative = inhibition) at 10uM” value stood at 23.5%.

`COc1cc([N+](=O)[O-])ccc1NC(=O)CSc1nnc(C)c(C)n1`: the “hERG current change (%, negative = inhibition) at 10uM” value is -25.2%. The result for `CCOc1ccc(NC(=O)COC(=O)C23CC4CC(CC(C4)C2)C3)c([N+](=O)[O-])c1` reads -2.63%. The result for `CCc1c(C)c(C#N)c2nc3ccccc3n2c1Nc1c(C)n(C)n(-c2ccccc2)c1=O` reads -5.49%; that for `O=[N+]([O-])c1ccc(-c2csc(Nc3ccccc3)[n+]2Cc2ccccc2)cc1.[Br-]`, 28.6%.

Regarding `COc1cccc(NC(=O)CN2CCc3ccccc3C2)c1`, the “hERG current change (%, negative = inhibition) at 10uM” value is given as 10.3%. The same measure for `Cc1nn(C)c(C(=O)NN)c1Cl`: 4.55%; for `Cc1nc(SCC(=O)NC2CCS(=O)(=O)C2)c(C#N)c(C)c1C` (centres unmarked): -2.72%. The result for `O=C(Nc1cccc(CCc2ccccn2)c1)c1cc(F)c(F)cc1Cl` reads -23.9%; that for `Cc1cccc(NC(=O)C2CCCN(S(=O)(=O)c3cccc4nonc34)C2)c1` (centres unmarked), 25.7%; that for `CSc1nc2ccc(NC(=O)C3CCCO3)cc2s1` (centres unmarked), -0.62%. The same measure for `O=[N+]([O-])c1cc(C(F)(F)F)cc([N+](=O)[O-])c1N1CCCNCC1`: -27%; for `O=C(NNC(=O)c1ccccc1OCc1ccc(F)cc1)c1ccncc1`: -24.8%. Turning to `CC(=O)N1c2ccc(S(=O)(=O)NCCC(=O)NC3CCC(C)CC3)cc2CC1C` (centres unmarked), the “hERG current change (%, negative = inhibition) at 10uM” value was found to be 9.25%. The result for `CCN(CC)c1ccc(-c2nc3cnccn3c2NC2CCCC2)cc1` reads 7.02%.

For the compound `Cc1c(O)ccc2cc(S(=O)(=O)c3ccccc3)c(=O)oc12`, the “hERG current change (%, negative = inhibition) at 10uM” value was found to be 13.8%.

For the compound `Cc1cccc(N2CCN(S(=O)(=O)c3ccc(S(=O)(=O)N4CCCC4)cc3)CC2)c1C`, the “hERG current change (%, negative = inhibition) at 10uM” value is 12.6%. The result for `COC(=O)NNC(=O)c1ccc(C)c(Br)c1` reads 1.45%; that for `Brc1ccc(C2=Nc3ccccc3C(c3ccncc3)=NN2)cc1`, 42.5%. The same measure for `CCOC(=O)c1nnn(-c2nonc2N)c1COc1c(C=O)cccc1OC`: -6.2%.

As to `CC(C)(C)OC(=O)CN1c2cccc3cccc(c23)S1(=O)=O`, the “hERG current change (%, negative = inhibition) at 10uM” value was 0.117%. The result for `CC(C)(C(=O)c1ccccc1)/[N+]([O-])=C/c1ccccc1F` reads 15.4%; that for `O=C(NCc1cccnc1)C(=O)NC1CCCCC1`, -9.15%. The same measure for `Cc1cc(C(=O)Nc2cccc([N+](=O)[O-])c2)c(C)o1`: -11.8%; for `CN1C[C@@H]2C(c3ccc(Cl)nc3)C3(c4ccccc4)CC2(C3)[C@H]1c1ccccc1` (some centres unmarked): -43.1%; for `COc1ccccc1CN(CC(=O)NCc1ccc2c(c1)OCO2)C(=O)c1ccc2c(c1)OCCO2`: -28.4%.

With `c1ccc(Cc2ccc(OCCn3cncn3)cc2)cc1`, the “hERG current change (%, negative = inhibition) at 10uM” value is given as -10.7%. The result for `Cc1nn(C)c(C(=O)N/N=C/c2cccnc2)c1Br` reads 16.8%; that for `C=CCNc1ncnc2c1cnn2-c1cccc(C)c1`, -11.5%. The result for `CCc1ccc2nc(NC(=O)c3cc(C)on3)sc2c1` reads 0.243%; that for `CC1(N2CCOCC2)C(=O)c2ccccc2C1=O.Cl`, -8.16%; that for `COc1ccc(S(=O)(=O)N2CC(C(=O)O)Oc3ccccc32)cc1` (centres unmarked), 19.5%. The same measure for `CC(C)C1(C)N=C(c2nc3ccccc3cc2C(=O)O)NC1=O` (centres unmarked): -6.81%. On to `Cc1cccc(OCC(=O)Nc2cccc(-c3nnc(-c4ccccc4)o3)c2)c1C`, for which the “hERG current change (%, negative = inhibition) at 10uM” value is given as -4.37%.

Turning to `COC(=O)C1=C(c2ccc(F)cc2OCc2ccccc2)C[C@@H]2CC[C@H]1N2C(=O)NCc1ccco1`, the “hERG current change (%, negative = inhibition) at 10uM” value is on record as -8.86%. For `CCCCN(C(=O)c1ccc(S(=O)(=O)N2CCCC2)cc1)C1CCS(=O)(=O)C1` (centres unmarked), the “hERG current change (%, negative = inhibition) at 10uM” value is -0.0452%. The result for `Cc1cc(NC(=O)CCC(=O)N(c2cccnc2)C(C(=O)NC2CCCC2)c2ccccc2F)no1` (centres unmarked) reads 1.42%; that for `O=C(Nc1cccc(F)c1)C1CCCN(S(=O)(=O)c2ccc(-n3cnnn3)cc2)C1` (centres unmarked), -20.2%.

Regarding `O=C(CSc1nnc(-c2ccco2)n1-c1ccccc1)NCc1ccco1`, the “hERG current change (%, negative = inhibition) at 10uM” value was -67.8%. Consider `CCN(CC)C(=S)NC(=O)c1ccc(F)cc1`, for which the “hERG current change (%, negative = inhibition) at 10uM” value was 23.3%. The result for `CCOC(=O)c1ccc(NC(=O)CCn2nnc3ccccc32)cc1` reads -3.08%; that for `CC(C)(C)NC(=O)COC(=O)c1ccc2c(c1)C(=O)N(Cc1ccco1)C2=O`, 13.5%; that for `Cc1ccc(C(=O)N/C(=C\c2cccc([N+](=O)[O-])c2)C(=O)NCc2ccncc2)cc1`, -73.3%. The same measure for `CN1CCN(c2nc3c(c(=O)[nH]c(=O)n3C)n2CCCSc2ncccn2)CC1`: -18.7%.

`Nc1ccccc1OCP(=O)(c1ccccc1)c1ccccc1`: the “hERG current change (%, negative = inhibition) at 10uM” value was determined as 0.626%. The result for `CCOC(=O)C1CCN(c2c(NCc3ccc(C(=O)Nc4ccc(C)cc4)cc3)c(=O)c2=O)CC1` reads 1.42%; that for `COCCNC(=O)C1CCC(CNS(=O)(=O)c2c(C)cc(C)cc2C)CC1` (centres unmarked), 7.72%. The same measure for `CC1(NC(=O)Cc2ccc(Cl)c(Cl)c2)CCS(=O)(=O)C1` (centres unmarked): 3.67%; for `Cc1cccc(CN2CCC(CNC(=O)Nc3ccc(F)c(Cl)c3)CC2)c1`: -74.9%. The result for `COc1ccc(CNC(=O)CS(=O)Cc2nc(-c3ccccc3C)oc2C)cc1` (centres unmarked) reads -31.7%; that for `Cc1ccc(S(=O)(=O)N(C)c2ccc(OC(C)C(=O)N3CCCC3)cc2)cc1C` (centres unmarked), -37.6%; that for `O=S(=O)(c1cccc2ccccc12)N1CCSC1`, -11.9%. As to `O=C1CCCC/C1=C\Nc1ccc(Cl)cn1`, the “hERG current change (%, negative = inhibition) at 10uM” value is recorded as -24.9%.

With `Cc1ccc2c(c1)[nH]c1c(N3CCN(Cc4ccccc4)CC3)ncnc12`, the “hERG current change (%, negative = inhibition) at 10uM” value is listed as -24.5%. The result for `O=C(NCc1cccc(Cl)c1)C1CCC(=O)N(CC2CCCCC2)C1` (centres unmarked) reads -17.2%; that for `Nc1nc2c(s1)C(=O)CCC2`, 11.5%; that for `O=C(NCc1ccco1)c1ccc(CS(=O)Cc2cccc(Cl)c2)o1` (centres unmarked), -6.01%. In the case of `Cc1ccc2c(c1)C(=C(C#N)C#N)C(=O)N2CCN1CCOCC1`, the “hERG current change (%, negative = inhibition) at 10uM” value is reported as -38.6%. On to `O=C(CN1C(=O)NC2(CCCCC2)C1=O)Nc1ccc(N2CCOCC2)cc1`, for which the “hERG current change (%, negative = inhibition) at 10uM” value is on record as 24.9%. The result for `Cc1ccc(NC(=O)COC(=O)CCc2ccc(S(=O)(=O)N3CCOCC3)cc2)cc1F` reads -11%; that for `COc1ccc(CN(C)C(=O)[C@H](Cc2ccccc2)NC(=O)c2ccco2)c(OC)c1`, -21.8%; that for `CN1CCc2c(OCC(=O)NC3CCCCC3)cccc2C1=O`, 13.6%. Take `Fc1ccc(F)c(CN2CCN(c3ncccn3)CC2)c1`: the “hERG current change (%, negative = inhibition) at 10uM” value was found to be 11.6%. The same measure for `Cc1ccc(NC(=O)CN2C(=O)COc3ccc(S(=O)(=O)N4CCCC4)cc32)c(C)c1`: 5.83%; for `CN1C(=O)N(CC(=O)N2CCN(S(=O)(=O)c3ccc(Cl)s3)CC2)C(=O)C12CCCCC2`: -16.1%. The result for `CSc1cc(C)c(OCC(=O)Nc2ccc(NC(C)=O)cc2)c(C)c1` reads -4.69%; that for `NC(=O)c1cc2nc(-c3ccco3)cc(C(F)(F)F)n2n1`, 4.51%. The result for `CCn1c(=O)cc(OCC(=O)N(C)C2CCCCC2)c2ccccc21` reads -3.72%.

The record behind these values is paper PMC4336329 (PLoS ONE, 2015).
